Values joined by “and” are separate entries in the source; they are usually repeats but may differ in a detail not shown here. Equal values may be shown once. Over roughly 13,000 compounds, “IFI” has its median near 4; the highest 2% begin near 17. The list shows a part of the results.
test: GSK_TCMDC: Inhibition Frequency Index (IFI). The number of non-kinase HTS assays where a compound showed > 50 % inhibition, expressed as a percentage of the number of such assays in which the compound was tested (-0 is zero); format: functional

| Structure (SMILES) | IFI |
| --- | --- |
| COCC(=O)N(Cc1ccccc1-c1ccc(CNCCc2ccccc2)cc1)C1CCN(Cc2ccccc2)CC1 | 8.21% |
| OC(CNC12CC3CC(CC(C3)C1)C2)c1cccc(C(F)(F)F)c1 (stereo not drawn) | -0% |
| CN1CC=C(c2c[nH]c3ccc(OC(=O)c4ccccc4)cc23)C1 | -0% |
| O=C(CCc1ccc(Cl)cc1Cl)NC1CCC(CN2CCC(c3c[nH]c4ccccc34)CC2)CC1 (stereo not drawn) | 5.38% and 4.58% |
| Cc1ccc(CC(C)NCC(O)c2cccc(Br)c2)cc1 (stereo not drawn) | 6.52% |
| O=C(NC1CCC(CN2CCC(c3c[nH]c4ccccc34)CC2)CC1)c1cc2ccccc2o1 (stereo not drawn) | 4.96% |
| O=C(NC1CCC(CN2CCC(c3c[nH]c4ccccc34)CC2)CC1)C1(O)c2ccccc2-c2ccccc21 (stereo not drawn) | 3.01% |
| CC[C@H]1CN2CC[C@H]1C[C@@H]2[C@H](O)c1ccnc2ccc(O)cc12 | 2.36% |
| CSc1nccc(-c2ccc(S(=O)(=O)NC3CCC(CN4CCC(c5c[nH]c6ccccc56)CC4)CC3)s2)n1 (stereo not drawn) | 9.93% and 9.09% |
| Cc1c(C)c2c(c(C)c1O)CC[C@](C)(C(=O)NC1CCC(CN3CCC(c4c[nH]c5ccccc45)CC3)CC1)O2 (stereo partly drawn) | 9.92% and 6.87% |
| CC(C)C[C@H](Nc1ccc(C#N)c2ccccc12)C(=O)N[C@@H]1CCCc2ccccc21 | 2.91% |
| Cc1cc(-c2ncc[nH]2)ccc1-c1ccc(C(=O)N2CCc3cc4c(cc32)C2(CCN(C)CC2)CO4)cc1 | 2.96% |
| CC(C)CNCc1cccc(-c2cccc(CN(C(=O)Nc3ccccc3)C3CCN(Cc4ccccc4)CC3)c2)c1 | 9.15% |
| CCCCCCC(C)(C)c1cc(O)c2c3c(c(=O)oc2c1)CCN(Cc1ccccc1)C3 | 2.22% |
| O=C(CCc1ccco1)NC1CCN(CC2(c3ccc(Cl)cc3)CCC2)CC1 | 8.11% |
| CN(C)CCc1c[nH]c2ccc(C(=O)Nc3ccc(-c4ccncc4)cc3)cc12 | 5.19% |
| OC(CNC1CCCCC1)c1ccc(Cl)c(Cl)c1 (stereo not drawn) | -0% |
| Cc1[nH]c2cc(F)ccc2c1C1=CCN(CCCCC2(C)C(=O)Nc3ccccc32)CC1 (stereo not drawn) | 2.19% |
| N#Cc1ccc(N(CC(=O)NCCc2ccc(F)cc2)CC2CC2)c2ccccc12 | 5.67% |
| Cc1ccc(CC(C)NCC(O)c2cccc(C#N)c2)cc1 (stereo not drawn) | 5.26% |
| COc1ccc(CC(C)NCC(O)c2ccc(Cl)c(Cl)c2)cc1 (stereo not drawn) | 5.11% |
| CCN(CC)CCN1C(=O)C(O)(c2ccccc2Cl)c2c1cc(C(N)=O)cc2C(F)(F)F (stereo not drawn) | 0.71% |

| Structure (SMILES) | IFI |
| --- | --- |
| O=C1NCN(c2ccc(O)cc2)C12CCN(CCCC(c1ccc(F)cc1)c1ccc(F)cc1)CC2 | 4.32% |
| CN1CC=C(c2c[nH]c3ccc(Sc4ccccc4)cc23)CC1 | 3.7% |
| O=C(Nc1cc(C(F)(F)F)cc(C(F)(F)F)c1)NC1CCC(CN2CCC(c3c[nH]c4ccccc34)CC2)CC1 (stereo not drawn) | 2.86% and 9.09% |
| CCCN(CC(=O)NCCc1ccccc1)c1ccc(C#N)c2ccccc12 | 6.29% |
| CC[C@H]1CN2CC[C@@H]1C[C@H]2[C@H](O)c1cc(-c2cccnc2)nc2ccc(OC)cc12 | 2.05% |
| CS(=O)(=O)Nc1ccc2[nH]cc(C3CCN(CC4CCC(NC(=O)/C=C/c5ccccc5Cl)CC4)CC3)c2c1 (stereo not drawn) | 2.13% |
| COCC(=O)N(Cc1cccc(-c2ccc(CNCCc3ccccc3)cc2)c1)C1CCN(Cc2ccccc2)CC1 | 7.59% |
| CC(Cc1ccc(C(C)(C)C)cc1)NCC(O)c1ccccc1 (stereo not drawn) | 5.22% |
| Cn1c(C2CC3CCC(C2)N3CC2CCC(NC(=O)/C=C/c3ccc(Cl)c(Cl)c3)CC2)nc2ccccc21 (stereo not drawn) | 6.12% |
| O=C(Nc1ccccc1Cl)NC1CCC(CN2CCC(c3c[nH]c4ccccc34)CC2)CC1 (stereo not drawn) | 3.65% and 4.9% |
| CNCCCN(C)C(=O)Oc1c(Br)c(C)nc(C)c1-c1ccc(Oc2ccc(OC(F)(F)F)cc2)cc1 | 7.41% |
| CC[C@H]1CN2CC[C@@H]1C[C@H]2[C@H](O)c1cc(N2CCC(O)(c3ccccc3)CC2)nc2ccc(OC)cc12 | 3.79% |
| CC[C@H]1CN2CC[C@H]1C[C@H]2[C@H](O)c1cc(N2CCC3CCCCC3C2)nc2ccc(OC)cc12 (stereo partly drawn) | 14.2% |
| OC(CNC1CCCCCCC1)c1ccc(Cl)c(Cl)c1 (stereo not drawn) | 2.14% |
| COc1ccc(-c2ccccc2)cc1NC(=S)NC1CCC(CN2CCC(c3c[nH]c4ccccc34)CC2)CC1 (stereo not drawn) | 8.7% and 9.93% |
| O=C(NC1CCN(CCc2c[nH]c3ccc(F)cc23)CC1)c1ncc(-c2ccccc2)[nH]1 | 0.72% |
| Cn1cc(CN2CCC(CCOC(c3ccccc3)c3ccccc3)CC2)cn1 | 3.88% |
| CC[C@H]1CN2CC[C@@H]1C[C@H]2[C@H](O)c1ccnc2ccc(Cl)cc12 | -0% |
| O=[N+]([O-])c1ccc(Oc2c(Cl)cc(S(=O)(=O)N3CCC(CN4CCC(c5c[nH]c6ccccc56)CC4)CC3)cc2Cl)c(Cl)c1 | 2.82% |
| CC[C@H]1CN2CC[C@H]1C[C@H]2[C@H](OC(=O)c1ccccc1)c1cc(C#N)nc2ccc(OC)cc12 | 1.49% |
| CCC1=C[C@@H]2CN(C1)Cc1c([nH]c3ccccc13)[C@@](C(=O)OC)(c1cc3c(cc1OC)N(C)[C@H]1[C@@](O)(C(=O)OC)[C@H](O)[C@]4(CC)C=CCN5CC[C@]31[C@@H]54)C2 | 5.07% |

— ChEMBL document CHEMBL1157539, “Thousands of chemical starting points for antimalarial lead identification” (Nature, 2010)
